Some of the results follow. One pool of 16,384 single-stranded DNAs met each Rep nickase domain in vitro (3 µM enzyme, 1 h, 37 °C); shown is the middle of each 90-letter strand. A value is the log2 ratio of uncut reads to the pool without enzyme; strong cutting gives strongly negative numbers. There is no active / inactive call. Shares of all reads are compared, so uncut sequences can rise above 0 when many others are cut.
test system: T1, Rep nickase domain of wheat dwarf virus; assay: uncleaved DNA left, log2 of reads against the no-enzyme library (log2 ratio); higher = less cleavage (more negative = more Rep cleavage of the k-mer); sequences stand for … in CTCGTCCG…ACCGGAGA
T1 sequence (residues 1-137, tag not shown): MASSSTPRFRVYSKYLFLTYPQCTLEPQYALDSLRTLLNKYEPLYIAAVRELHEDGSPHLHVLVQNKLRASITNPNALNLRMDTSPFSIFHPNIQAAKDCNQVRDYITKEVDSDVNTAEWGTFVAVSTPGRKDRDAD
Procedure: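 A pool of 90-nt single-stranded DNAs with seven random bases just before the constant AC of the nick site (name = the seven bases) was cut by 3 µM recombinant His6-SUMO-tagged Rep nickase domain (300 nM DNA, 50 mM HEPES pH 8.0, 50 mM NaCl, 1 mM MnCl2, 1 h, 37 °C, three replicates). Uncut DNA was amplified and sequenced.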

Sequence	uncleaved DNA left (log2)
CCGCCTG	-0.00238
ATGCTCA	0.00275
GTCCACA	0.176
CTGTGCT	-0.113
ATAAAGT	-0.0314
GCGTATG	0.032
ATCCGAA	-0.0115
TACAAGA	0.0182
CGCCAAC	0.0646
CCGTTAT	-0.116
TAGTAGC	-0.0744
GTCGGGC	0.0207
CCATGCT	-0.0686
TGGCATC	0.302
CTTGTGT	-0.0378
CACTCGT	-0.275
GTGTGAG	-0.169
CTTCGGG	0.00111
GGACTAT	0.309
ATAACGG	0.016

Sequence	uncleaved DNA left (log2)
TAGCGTT	-0.138
GTTGTTG	-0.125
TTAACAG	-0.0392
AGTGGGC	0.108
GCCAGAC	-0.0236
ACACGCG	0.0255
GTATGTT	-0.18
ACTCCCA	-0.11
GACTCTC	-0.0609
AAGAGGG	0.0774
CCTAACC	-0.158
TATGTCA	0.0791
AGGAAGG	-0.0719
TGTATGG	0.0588
CGTTTTT	-0.112
CCGCGGA	-0.231
TCTCAAA	0.0138
CCGGACT	0.0103
CCTTTAA	-0.012
GCTAGGA	0.0189
